According to the supplement of paper PMC11417369:
± gives the standard deviation of the averaged measurements. The list shows a part of the results.

test system: PfAP2-I AP2 domain 3 (GST-tagged); test: gcPBM binding intensity (ln(normalized median fluorescence intensity)); higher = stronger DNA binding
In short: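 An Agilent 4 × 180k array of primer-extended double-stranded 36-bp intergenic genomic probes, with negative controls, was incubated for 1 h with GST-tagged P. falciparum DNA-binding domains expressed in E. coli. Alexa488 anti-GST antibody detected bound protein, scanned at 488 nm. Binding intensity is the highest Masliner-normalised natural-log median intensity across replicate spots of either probe orientation.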

**Q.** Which “gcPBM binding intensity (ln)” value does the source give for “ACATACGAAAATTGGAAGGATAGATAAAAAGAAAAT [CACACA_negctrl_site51]” here?
**A.** 7.82 ± 0.88

**Q.** “GTACAGATGTAGTATGCATGTAATTATATATAAATT [TGCATGCA_site292]” was tested. Which “gcPBM binding intensity (ln)” value did it give?
**A.** 8.07 ± 0.69

**Q.** For “ATATAAAAAAGAGGGAGTACTTGTAACAAAATAATA [XGTACX_site8679]”, which “gcPBM binding intensity (ln)” value is on record?
**A.** 8.03 ± 0.54

**Q.** “ACATGTTCATAATTTTGTACATATTTTTATGAACAT [XGTACX_site3976]” was tested. Which “gcPBM binding intensity (ln)” value did it give?
**A.** 7.94 ± 0.41

**Q.** “ACGTAGTAGGTATTATGTACATATTTATAAGTATAA [XGTACX_site7336]” was tested. Which “gcPBM binding intensity (ln)” value did it give?
**A.** 7.84 ± 0.49

**Q.** How did the “gcPBM binding intensity (ln)” value turn out when “TAACTACTAGAAAAAACACACAAAAAGTAAATATAT [CACACA_site2740]” was run?
**A.** 7.79 ± 0.74

**Q.** “TTCCCATGTAATATTAAACACACACCCATATAACAC [CACACA_site7905]” was tested. Which “gcPBM binding intensity (ln)” value did it give?
**A.** 8.96 ± 0.11

**Q.** With “ATTCTAATTACATATACACACAAAGGTTCATAACAA [CACACA_site3076]” as the sequence, how does the “gcPBM binding intensity (ln)” value read?
**A.** 7.88 ± 0.54

**Q.** “TATATAAATGTATACACACACATATAAATATAAATA [CACACA_site6751]” was tested. Which “gcPBM binding intensity (ln)” value did it give?
**A.** 7.68 ± 0.33

**Q.** For “ATAAACAGATCATATACATGCATATATGTAGAATAA [TGCATGCA_site157]”, which “gcPBM binding intensity (ln)” value is on record?
**A.** 7.68 ± 0.72

**Q.** With “TGTTTAACATTTATATGTACATATATTCACATATTA [XGTACX_site342]” as the sequence, how does the “gcPBM binding intensity (ln)” value read?
**A.** 7.92 ± 0.49

**Q.** For “TGATTTTTTTTTTTTTTTTTTTTTTTTTTAGTTTGC [CACACA_negctrl_site1057]”, which “gcPBM binding intensity (ln)” value is on record?
**A.** 7.62 ± 0.28

**Q.** With “TAAAATATAAGACACACACACATATATTTATATATC [CACACA_site6248]” as the sequence, how does the “gcPBM binding intensity (ln)” value read?
**A.** 7.94 ± 0.58

**Q.** With “TACCAAATCACCCCTTGTACCCATTTTAAAATTTTC [XGTACX_site396]” as the sequence, how does the “gcPBM binding intensity (ln)” value read?
**A.** 8.26 ± 0.59

**Q.** Which “gcPBM binding intensity (ln)” value does the source give for “TTATGTTATAAATACACACACAAAAGAAAAAAAAAA [CACACA_site7414]” here?
**A.** 7.98 ± 0.62

**Q.** “TCCCATAATATTAGTAGTACTATTAATATTTTCAGG [XGTACX_site4925]” was tested. Which “gcPBM binding intensity (ln)” value did it give?
**A.** 7.51 ± 0.45

**Q.** Which “gcPBM binding intensity (ln)” value does the source give for “TTCTCTATAAATGCTGCACACACATTTAATTATTTA [CACACA_site8828]” here?
**A.** 8.98 ± 0.34

**Q.** “ATTTCTTTTTTTTCTTGTACACATATTAAATTTATG [XGTACX_site734]” was tested. Which “gcPBM binding intensity (ln)” value did it give?
**A.** 8.22 ± 0.2

**Q.** How did the “gcPBM binding intensity (ln)” value turn out when “TCTAAACAAATTAATAAAATAAGTATTCAAAATTAT [CACACA_negctrl_site731]” was run?
**A.** 7.4 ± 0.67

**Q.** Which “gcPBM binding intensity (ln)” value does the source give for “AATATTTATTTTTTTGCACACATATTTTACATTTTA [CACACA_site3182]” here?
**A.** 9.61 ± 0.22

**Q.** “GTAAAATTTCGGATTTGTACACATGGCTATGAAAAA [XGTACX_site939]” was tested. Which “gcPBM binding intensity (ln)” value did it give?
**A.** 8.01 ± 0.67

**Q.** Which “gcPBM binding intensity (ln)” value does the source give for “AAAAAGCAGGATTATACACACAAATATTTATATGTT [CACACA_site6634]” here?
**A.** 7.51 ± 0.53

**Q.** How did the “gcPBM binding intensity (ln)” value turn out when “GCGTAGTTCGGAAGGGTGCTTTTTTGTTAATAAAAA [GTGCAC_site9592]” was run?
**A.** 8.97 ± 0.28

**Q.** Which “gcPBM binding intensity (ln)” value does the source give for “TATAAACAGACGAAAACACACATATGTAAATATATA [CACACA_site4428]” here?
**A.** 7.67 ± 0.66

**Q.** How did the “gcPBM binding intensity (ln)” value turn out when “ATAAAAATAATATCATGTACATATGTGTATTGTATT [XGTACX_site1768]” was run?
**A.** 7.89 ± 0.48

**Q.** “TACAAAAAGTTATACACACACGTACCTATAAATAGA [CACACA_site6571]” was tested. Which “gcPBM binding intensity (ln)” value did it give?
**A.** 7.81 ± 0.33

**Q.** For “TATTTCTTTTGGTTGGTGCATAAAATAATACAATAT [GTGCAC_site9916]”, which “gcPBM binding intensity (ln)” value is on record?
**A.** 11.2 ± 0.59

**Q.** For “CAGACCTCTTTGTCATGTACATAAAAAAATAAAGAA [XGTACX_site7887]”, which “gcPBM binding intensity (ln)” value is on record?
**A.** 8.21 ± 0.49

**Q.** How did the “gcPBM binding intensity (ln)” value turn out when “ACGAATTAAATGGATTAATATATATATGTATATTTA [CACACA_negctrl_site1512]” was run?
**A.** 7.38 ± 0.3

**Q.** Which “gcPBM binding intensity (ln)” value does the source give for “TTAAATACTTTTCGAAGTACATTATATATATAATAT [XGTACX_site7530]” here?
**A.** 7.63 ± 0.28

**Q.** How did the “gcPBM binding intensity (ln)” value turn out when “CGCAACACTATTTGGGTGCTCTTCAAAAAAAAAAAA [GTGCAC_site9598]” was run?
**A.** 9.25 ± 0.34

**Q.** Which “gcPBM binding intensity (ln)” value does the source give for “AGAATATATATAATAGTGCAATGTACAATGAACAAA [GTGCAC_site9577]” here?
**A.** 9.42 ± 0.042

**Q.** How did the “gcPBM binding intensity (ln)” value turn out when “TCCATTCTATTTTTTACACACGTATGTAAATATTAT [CACACA_site2686]” was run?
**A.** 7.96 ± 0.49

**Q.** With “ATTTGCTTTTATTTTACACACTTGCTCCTGTTGTAC [CACACA_site1088]” as the sequence, how does the “gcPBM binding intensity (ln)” value read?
**A.** 8.29 ± 1

**Q.** For “AAAAAAAAATATATTGCACACCTCTCAATAAAAAAA [CACACA_site172]”, which “gcPBM binding intensity (ln)” value is on record?
**A.** 10.3 ± 0.43

**Q.** “CGACTTTTAAAATATACACACATATATATATATATA [CACACA_site825]” was tested. Which “gcPBM binding intensity (ln)” value did it give?
**A.** 9.47 ± 0.46

**Q.** For “ATAAATGAAGATAAATTAAAAAAAAAAAAAAAAAAA [CACACA_negctrl_site992]”, which “gcPBM binding intensity (ln)” value is on record?
**A.** 8.06 ± 0.54

**Q.** How did the “gcPBM binding intensity (ln)” value turn out when “GAATGTATTCATAAATGTACTTATAATATTATAATA [XGTACX_site3466]” was run?
**A.** 7.74 ± 0.49

**Q.** For “ATAACATACATAACAACACACAATATTTATATGTAT [CACACA_site210]”, which “gcPBM binding intensity (ln)” value is on record?
**A.** 7.75 ± 0.45

**Q.** “AATACATAAATATTTTGTACATATTATATAAAATAT [XGTACX_site1627]” was tested. Which “gcPBM binding intensity (ln)” value did it give?
**A.** 7.63 ± 0.45

**Q.** “CTTGTACCTAGAAATACACACAATTATATAACTTAT [CACACA_site2838]” was tested. Which “gcPBM binding intensity (ln)” value did it give?
**A.** 7.8 ± 0.46

**Q.** “ATGAAAAAAAAAAAAAAAAAAAAAAAAAAAAAAAAA [CACACA_negctrl_site1405]” was tested. Which “gcPBM binding intensity (ln)” value did it give?
**A.** 8.68 ± 1.1

**Q.** For “ACTTTTTAATAATAATAATTATATATATATATATAT [TGCATGCA_negctrl_site459]”, which “gcPBM binding intensity (ln)” value is on record?
**A.** 9.16 ± 0.014

**Q.** How did the “gcPBM binding intensity (ln)” value turn out when “ATATATATTTAATTTACACACAAAAAAAATTGTTGG [CACACA_site961]” was run?
**A.** 7.67 ± 0.65
